Laboratory results published in a collection of fitness landscapes (doi:10.1016/j.celrep.2020.107928).
In all, about 81,000 sequences were measured (“one-hybrid fitness for binding parS DNA”: median about -0.17, highest 2% from about 0.51 on). The list shows a part of the results.

B1: Caulobacter ParB omega fusion; a variant is named by its letters at X, in order, B8GW30 (parent)
chain: MESVVVGEPGMSEGRRGLGRGLSALLGEVDAAPAQAPGEQLGGSREAPIEILQRNPDQPRRTFREEDLEDLSNSIREKGVLQPILVRPSPDTAGEYQIVAGERAWRAAQRAGLKTVPIMVRELDDLAVLEIGIIENVQRADLNVLEEALSYKVLMEKFERTQENIAQTIGKSXSHVANXMRLLXLPDEVQSYLVSGELTAXHARAIAAAADPVALAKQIIEGGLSVRETEALARKAPNLSAGKSKGGRPPRVKDTDTQALESDLSSVLGLDVSIDHRGSTGTLTITYATLEQLDDLCNRLTRGI

Variants of: B1
Assay: one-hybrid fitness for binding parS DNA (scaled: cognate 1, non-cognate 0); higher = stronger binding
Settings: with parS DNA site
Summary of the method: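 In E. coli USO, a HIS3 reporter with its site placed 19 bp from the promoter was used to select Caulobacter ParB variants randomised at four specificity codons. Growth lasted 48 hours at 37°C on histidine-free M9 containing 0.1 mM IPTG and 5 mM 3-AT. Fitness was taken as the log change in variant-to-wild-type read ratio from Illumina sequencing of pre- and post-selection plasmids, rescaled between the non-cognate and cognate sites.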

Row | Variant | one-hybrid fitness for binding parS DNA
1 | GFQK | ≤ 0.2
2 | KTGG | ≤ 0.2
3 | STQL | ≤ 0.2
4 | PNMR | ≤ 0.2
5 | LYFC | ≤ 0.2
6 | KGKC | ≤ 0.2
7 | YYAC | ≤ 0.2
8 | ENAC | ≤ 0.2
9 | SHNY | ≤ 0.2
10 | LSWW | ≤ 0.2
11 | PADK | ≤ 0.2
12 | LLHA | ≤ 0.2
13 | MAHT | ≤ 0.2
14 | DIHI | ≤ 0.2
15 | RWYG | 0.714
16 | QFAC | ≤ 0.2
17 | LYKD | ≤ 0.2
18 | WELS | ≤ 0.2
19 | CPVT | ≤ 0.2
20 | RERV | ≤ 0.2
21 | NDAV | ≤ 0.2
22 | MQCC | ≤ 0.2
23 | ALCN | ≤ 0.2
24 | CSQC | ≤ 0.2

Row | Variant | one-hybrid fitness for binding parS DNA
25 | FSAG | ≤ 0.2
26 | IYRF | ≤ 0.2
27 | IWRK | ≤ 0.2
28 | TNIL | ≤ 0.2
29 | YRAN | ≤ 0.2
30 | NHRI | ≤ 0.2
31 | YYYR | ≤ 0.2
32 | QRYH | ≤ 0.2
33 | IARW | ≤ 0.2
34 | VTWI | ≤ 0.2
35 | NSLH | ≤ 0.2
36 | QPCY | ≤ 0.2
37 | RYSN | 0.384
38 | TSIV | ≤ 0.2
39 | LYST | ≤ 0.2
40 | QANK | ≤ 0.2
41 | RRFK | ≤ 0.2
42 | FCRS | ≤ 0.2
43 | GRVI | ≤ 0.2
44 | SYKK | ≤ 0.2
45 | QAMW | ≤ 0.2
46 | SMQM | ≤ 0.2
47 | RCRF | 0.427
48 | VNKE | ≤ 0.2

Row | Variant | one-hybrid fitness for binding parS DNA
49 | MNLI | ≤ 0.2
50 | LAPL | ≤ 0.2
51 | GAFV | ≤ 0.2
52 | THRG | ≤ 0.2
53 | SMIR | ≤ 0.2
54 | PLSW | ≤ 0.2
55 | LSTY | ≤ 0.2
56 | FAWS | ≤ 0.2
57 | CRVR | ≤ 0.2
58 | TLVK | ≤ 0.2
59 | TSMF | ≤ 0.2
60 | MFVG | ≤ 0.2
61 | PYLT | ≤ 0.2
62 | FSDT | ≤ 0.2
63 | LLFI | ≤ 0.2
64 | WSTW | ≤ 0.2
65 | RCGH | 0.217
66 | VQKA | ≤ 0.2
67 | VAAS | ≤ 0.2
68 | CFLE | ≤ 0.2
69 | NGAG | ≤ 0.2
70 | LIWG | ≤ 0.2
71 | TWLQ | ≤ 0.2
72 | HRSY | ≤ 0.2

Row | Variant | one-hybrid fitness for binding parS DNA
73 | DVPV | ≤ 0.2
74 | QDQM | ≤ 0.2
75 | YVKG | ≤ 0.2
76 | CQSV | ≤ 0.2
77 | WRAS | ≤ 0.2
78 | CQYG | ≤ 0.2
79 | LPDD | ≤ 0.2
80 | RDTY | ≤ 0.2
81 | TWNN | ≤ 0.2
82 | VVST | ≤ 0.2
83 | QCYH | ≤ 0.2
84 | QSNN | ≤ 0.2
85 | SCAL | ≤ 0.2
86 | MVFD | ≤ 0.2
87 | MRRY | ≤ 0.2
88 | WDNG | ≤ 0.2
89 | RVQE | ≤ 0.2
90 | HLFA | ≤ 0.2
91 | NLGC | ≤ 0.2
92 | QTIS | ≤ 0.2
93 | QYEE | ≤ 0.2
94 | AEVD | ≤ 0.2
95 | GLKV | ≤ 0.2
96 | SACD | 0.214

Row | Variant | one-hybrid fitness for binding parS DNA
97 | PWDA | ≤ 0.2
98 | TLIH | ≤ 0.2
99 | ATAA | ≤ 0.2
100 | LAGW | ≤ 0.2
101 | QEER | ≤ 0.2
102 | DFPS | ≤ 0.2
103 | QYKN | ≤ 0.2
104 | IVVR | ≤ 0.2
105 | AMHW | ≤ 0.2
106 | RSCP | ≤ 0.2
107 | VIMS | ≤ 0.2
108 | QSLE | ≤ 0.2
109 | QESE | ≤ 0.2
110 | QTNG | ≤ 0.2
111 | TLPN | ≤ 0.2
112 | RITL | ≤ 0.2
113 | NAWT | ≤ 0.2
114 | NDAL | ≤ 0.2
115 | FLEL | ≤ 0.2
116 | MHSS | ≤ 0.2
117 | QAVW | ≤ 0.2
118 | LLHM | ≤ 0.2
119 | QYDW | ≤ 0.2
120 | FAYS | ≤ 0.2

Row | Variant | one-hybrid fitness for binding parS DNA
121 | DWHW | ≤ 0.2
122 | VVML | ≤ 0.2
123 | QDLE | ≤ 0.2
124 | SVMR | ≤ 0.2
125 | DLRM | ≤ 0.2
126 | RVYS | 1.04
127 | GMQF | ≤ 0.2
128 | YPGS | ≤ 0.2
129 | TYLY | ≤ 0.2
130 | RDMM | ≤ 0.2
131 | QGFV | ≤ 0.2
132 | RLWD | ≤ 0.2
133 | VNIR | ≤ 0.2
134 | KRMC | ≤ 0.2
135 | ASSW | ≤ 0.2
136 | QHLK | ≤ 0.2
137 | QMMQ | ≤ 0.2
138 | RYYD | ≤ 0.2
139 | TPEV | ≤ 0.2
140 | QRTA | ≤ 0.2
141 | DLRC | ≤ 0.2
142 | ESPT | ≤ 0.2
143 | RYTS | 0.904
144 | QMAG | ≤ 0.2

Row | Variant | one-hybrid fitness for binding parS DNA
145 | DNKD | ≤ 0.2
146 | DMYI | ≤ 0.2
147 | GRSE | ≤ 0.2
148 | QVAH | ≤ 0.2
149 | RSEV | ≤ 0.2
150 | ILLL | ≤ 0.2
151 | SNDT | ≤ 0.2
152 | LPAA | ≤ 0.2
153 | SYLI | ≤ 0.2
154 | RTLA | 0.595
155 | VSAW | ≤ 0.2
156 | MHSC | ≤ 0.2
157 | YASA | ≤ 0.2
158 | VHII | ≤ 0.2
159 | RFVC | 0.753
160 | YPAV | ≤ 0.2
161 | WCNL | ≤ 0.2
162 | QPCL | ≤ 0.2
163 | NRVM | ≤ 0.2
164 | STSD | ≤ 0.2
165 | QTAQ | ≤ 0.2
166 | YNKS | ≤ 0.2
167 | RMDP | ≤ 0.2
168 | CFKG | ≤ 0.2

Row | Variant | one-hybrid fitness for binding parS DNA
169 | NESM | ≤ 0.2
170 | VGER | ≤ 0.2
171 | DLYD | ≤ 0.2
172 | REYM | ≤ 0.2
173 | SYGM | ≤ 0.2
174 | LPLY | ≤ 0.2
175 | HVWM | ≤ 0.2
176 | AGDD | ≤ 0.2
177 | ASQY | ≤ 0.2
178 | KHQP | ≤ 0.2
179 | MRRK | ≤ 0.2
180 | IPRG | ≤ 0.2
181 | ATLG | ≤ 0.2
182 | WMAS | ≤ 0.2
183 | RKAN | 0.343
184 | KTPH | ≤ 0.2
185 | SYSM | ≤ 0.2
186 | DTPI | ≤ 0.2
187 | WHGV | ≤ 0.2
188 | ELTT | ≤ 0.2
189 | GSSW | ≤ 0.2
190 | NQTA | ≤ 0.2
191 | YSLA | ≤ 0.2
192 | LRAY | ≤ 0.2

Row | Variant | one-hybrid fitness for binding parS DNA
193 | QCWC | ≤ 0.2
194 | HYWG | ≤ 0.2
195 | ACPA | ≤ 0.2
196 | HLIF | ≤ 0.2
197 | EARQ | ≤ 0.2
198 | SIDG | ≤ 0.2
199 | QGHC | ≤ 0.2
200 | YPWV | ≤ 0.2
201 | NIHC | ≤ 0.2
202 | AAWT | ≤ 0.2
203 | CKGG | ≤ 0.2
204 | IDKR | ≤ 0.2
205 | DKFG | ≤ 0.2
206 | ACRP | ≤ 0.2
207 | TSIP | ≤ 0.2
208 | LRMF | ≤ 0.2
209 | GPKL | ≤ 0.2
210 | YRLT | ≤ 0.2
211 | INQT | ≤ 0.2
212 | SRSP | ≤ 0.2
213 | RNGW | ≤ 0.2
214 | SYAD | ≤ 0.2
215 | STDG | ≤ 0.2
216 | LLHQ | ≤ 0.2

Row | Variant | one-hybrid fitness for binding parS DNA
217 | KPIF | ≤ 0.2
218 | YPFT | ≤ 0.2
219 | SSTT | ≤ 0.2
220 | CQEI | ≤ 0.2
221 | PHRI | ≤ 0.2
222 | SFRV | ≤ 0.2
223 | WVGM | ≤ 0.2
224 | RLGD | ≤ 0.2
225 | FTNN | ≤ 0.2
226 | RMRR | ≤ 0.2
227 | DAGN | ≤ 0.2
228 | MDAM | ≤ 0.2
229 | PQAG | ≤ 0.2
230 | VGKH | ≤ 0.2
231 | RSTC | 0.97
232 | TRMM | ≤ 0.2
233 | TCHT | ≤ 0.2
234 | RMTA | 0.6
235 | KLPN | ≤ 0.2
236 | QYER | ≤ 0.2
237 | AWLA | ≤ 0.2
238 | TMKR | ≤ 0.2
239 | ASNP | ≤ 0.2
240 | QYWH | ≤ 0.2

Row | Variant | one-hybrid fitness for binding parS DNA
241 | VVPW | ≤ 0.2
242 | SCVQ | ≤ 0.2
243 | ELMI | ≤ 0.2
244 | RQHF | 0.231
245 | GWDN | ≤ 0.2
246 | FTGY | ≤ 0.2
247 | LCSD | ≤ 0.2
248 | CGAQ | ≤ 0.2
249 | NYKP | ≤ 0.2
250 | KRCF | ≤ 0.2
251 | QSLN | ≤ 0.2
252 | EIRL | ≤ 0.2
253 | QILL | ≤ 0.2
254 | VQYL | ≤ 0.2
255 | TPMY | ≤ 0.2
256 | MYDR | ≤ 0.2
257 | TIAW | ≤ 0.2
258 | GHTC | ≤ 0.2
259 | RWSA | 0.429
260 | SRCI | ≤ 0.2
261 | YLIF | ≤ 0.2
262 | PELK | ≤ 0.2
263 | PFNT | ≤ 0.2
264 | AVTW | ≤ 0.2

Row | Variant | one-hybrid fitness for binding parS DNA
265 | SWAD | ≤ 0.2
266 | VRYA | ≤ 0.2
267 | TNSM | ≤ 0.2
268 | TGIL | ≤ 0.2
269 | CRRI | ≤ 0.2
270 | YLMA | ≤ 0.2
271 | ESGV | ≤ 0.2
272 | RMYD | ≤ 0.2
273 | KKAY | ≤ 0.2
274 | ARRF | ≤ 0.2
275 | YGGR | ≤ 0.2
276 | NRNY | ≤ 0.2
277 | YIMS | ≤ 0.2
278 | PYRW | ≤ 0.2
279 | SLYG | ≤ 0.2
280 | MDGS | ≤ 0.2
281 | CKED | ≤ 0.2
282 | GSTQ | ≤ 0.2
283 | CTKL | ≤ 0.2
284 | YEER | ≤ 0.2
285 | PRHS | ≤ 0.2
286 | DPNA | ≤ 0.2
287 | MDTG | ≤ 0.2
288 | QTKN | ≤ 0.2

Row | Variant | one-hybrid fitness for binding parS DNA
289 | CEQR | ≤ 0.2
290 | LVLR | ≤ 0.2
291 | WHAF | ≤ 0.2
292 | KMTD | ≤ 0.2
293 | THHN | ≤ 0.2
294 | PMMR | ≤ 0.2
295 | AIQC | ≤ 0.2
296 | YQSG | ≤ 0.2
297 | LDNL | ≤ 0.2
298 | YEAT | ≤ 0.2
299 | SGWR | ≤ 0.2
300 | WIRS | ≤ 0.2
301 | NHIC | ≤ 0.2
302 | QCAA | ≤ 0.2
303 | GRFL | ≤ 0.2
304 | GVAY | ≤ 0.2
305 | FLVS | ≤ 0.2
306 | VPAL | ≤ 0.2
